Results: the supplement of paper PMC10681739
Whole data set: some 2,700 sequences, median “arbitrary fluorescence units” near 4,100, cut for the highest 2% near 54,000. Some of the results follow.

Biological target: T1, ETS1 (UniProt P14921)
T1 sequence: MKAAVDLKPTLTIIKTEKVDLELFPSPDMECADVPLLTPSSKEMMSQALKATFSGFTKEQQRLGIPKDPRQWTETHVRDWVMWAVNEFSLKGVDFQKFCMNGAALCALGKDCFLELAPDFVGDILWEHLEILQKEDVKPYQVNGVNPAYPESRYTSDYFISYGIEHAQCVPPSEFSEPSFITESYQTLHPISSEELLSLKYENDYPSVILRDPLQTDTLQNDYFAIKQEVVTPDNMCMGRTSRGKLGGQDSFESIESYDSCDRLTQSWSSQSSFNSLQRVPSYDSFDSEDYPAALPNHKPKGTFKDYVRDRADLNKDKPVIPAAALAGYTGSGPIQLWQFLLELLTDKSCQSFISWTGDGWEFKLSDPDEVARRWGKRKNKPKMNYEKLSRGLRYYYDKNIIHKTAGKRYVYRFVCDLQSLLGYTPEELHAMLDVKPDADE
Assay: ETS1 binding intensity (PBM fluorescence) (arbitrary fluorescence units); higher = stronger binding
Settings: ETS1 concentration 10 nM
Experimental: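 gcPBM on wild-type 36-bp genomic probes with two neighbouring ETS1 sites (4-24 bp apart). Recombinant human ETS1 (10 nM) was detected with anti-ETS1 antibody fluorescence. Values are medians over 3 replicate spots. The probes sit in constant array flanks that are not printed.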

| Sequence | ETS1 binding intensity |
| --- | --- |
| GACATTTCCCAGATGTGGTTTGTGGTCGGATGCCCC | 274 |
| CAGGAGGGAACAGGAAAAACAGGAACTCACTGTCTC | 328 |
| TGCATATCCTGGAACTCCACATTTCCTCCTGGTGAC | 8830 |
| ATGGCTGCCCACATCCTGGTTTCCTCTCTCCGAGCA | 8310 |
| TTTAACACGTTTCCCAGGCAACAGGAAGCTCTCAGT | 465 |
| GGACAGGAAAGCGCAGCCGCGCACGGGTTTCCTCTC | 458 |
| CTGACCTGCTTCCTCATGGTTGTTTCCTGCCTATTG | 3740 |
| TTGTCCTTCCGGCTAGCTTCTCTTGACTTCCTGGCA | 16000 |
| TCCATTTCCTGCCTCAGTGTGAGTGGCAGGAAGACC | 48700 |
| TTCAGGATGAGTCATCCATTTCCTGCCAAGAACAAT | 9570 |
| GACATCACCAGGATGCTATGTGCTTCCTCTGAAGTA | 414 |
| CCTGCTCGGAAGTCTACGAGGACGCTTCCGGGTCAC | 1770 |
| GCACACAGGAAGCTCCTCCCCTCACAGGATGTATGC | 6480 |
| GAGAGAGTGGAGCAGGAAGGAAGCCGGGGCCCTGAA | 288 |
| AGCAACTTCCGGTGCGCTTAGCGTTACTTCCGGCGC | 116000 |
| AAGTCAGGAAACAACAGATGCTGGAGAGGATGTGCA | 365 |
| CAAACTAACATATCCTGAGCACTTCCTGTGTGACTA | 9810 |
| ACGTTGCTTCCGGTGCCTGGCTCCGTTTCCTGCTTT | 51300 |
| CCCTAGTAGTTCCGCTCCGAGGGCGGAAGTGCGCGT | 7820 |
| CCCGGGCAGCGGAAATGGTTAGCTTCCTCTAGGAGT | 8910 |
| GAAACGGAAGTGCGCGCCGAGGCTCCTGGGAAATGT | 8250 |
| GCCGGCGGAAGTGCTGCGTCGCGCACTTCCGGGTGT | 16200 |
| TTCCCACATCATCCTGTTGATTCATCCGCTCAAACA | 2570 |
| CCACCCTGCTTCCTGCTTAACCATTTCCTGCTGACT | 15300 |
| ACCGGGCGGTGAGGAAGCTCCGGAAATACATCGTCG | 1930 |

| Sequence | ETS1 binding intensity |
| --- | --- |
| CGTTTCGACATCCTGCCTGACGTCTTCCTGTAGCAT | 20900 |
| GGTAAGTTCTACAGGAAACAGGAAACATGGTTTAAC | 4210 |
| CCCAGGGCCTTCCGCGTCCTCCTGTTCCGGCAGGAG | 571 |
| GTGATTCACATCCTCTGTTCCCCAGGATGACTCAAC | 6200 |
| CCCACTTCCGGCAACAAGATAGAGCACTTCCGTCAA | 77600 |
| AATTAGAACGACTTCCCCACTTCCGTCGGGTTCCAC | 4860 |
| AGGGAACGAGTGCAGGAAGGAAGTGAGAGAGTTCTG | 297 |
| TAAGTAGCTTCCTGTATCTAACACAGGATGTTGAAA | 17800 |
| CAGAGGCACAGGAAGACAAGACTTCCTGCACCCAGC | 5110 |
| CAGCCACTTCCTGGTACCCAAGGCCGGAAGTCCCTT | 21000 |
| GGCTGGCAGGAACTTCACCATGTATTTCCGCTAGAA | 2210 |
| CTTTTTTCACTTCCCTCCTCCCATCCGGCCAGGACA | 4630 |
| CAGTTGGTCTGCCAGGAAGGAAGTCGGCTCAGGGGA | 354 |
| TTTGTTGAAAGACTTCCTACTTCCTCTTTGACTCAT | 5830 |
| CAGCCTCTAGGTTCCGCCAATTTCCTGGTTGCTAAC | 1830 |
| CGGCCGGAAATGCGCGCGCGGCTCTCTGGGAAATGG | 18800 |
| CAGGGACGCGCGAGGAAACCGGAAGTCAGGCCCGAG | 17000 |
| GAGACAGGAAGAGCCAAAAAACTACATTTCCCAGTC | 4740 |
| TCCAAGAGGAAGTGAGCGGTGCAAAGGAAGCCAGGA | 3030 |
| AATGCCCTTCCTGTTGAGAGCCAGCAGGAAGGCTGG | 16300 |
| ATCCAGCTATTCAGGAAGCGGAAGCAGGAGAGTCGC | 2030 |
| ATGTATTCCGGCTCCTCCTCCCTCAGCAGGAAGCCA | 1290 |
| GGGGCGGCTCGGAAACCCCAGCGGAAGGCAGCAAGG | 183 |
| TCCGAGGCCGGAAGTCAGAAGGCGGAAGTGAACTGC | 26400 |
| ACATAAGGGAGGAAGAGTGTCATATCCTTTCAATTG | 320 |

| Sequence | ETS1 binding intensity |
| --- | --- |
| AGACGAACCGGAAACGAACCCCATTTCCGGCCTGGG | 37300 |
| TCACTTCCGCCATGAGGGCTTCAGCTGCATCCTGTT | 37400 |
| AGAACAGGATGTAACAAAATAATCTATTTCCGGCAT | 17800 |
| GGACTCGGCGCTCGGAAGCGGAAGCCGCTCCGCCCC | 1150 |
| AGTCACTTCCTCTCTCTAGGCATCGGTTTCCTCTTC | 20200 |
| CACCCTCCATGGTTCCAGCCGGAAAAAGAGGAAGTT | 270 |
| GGACAGGGACCGGATGGGAGGGGAAGTCGATGCTTG | 3430 |
| CACCCATTTTCACTTCCGCTTCCGGTTGTCACAGGC | 26500 |
| GGCGTTCCACAGGAAAAGCCTTTTCCTGTGTTTGGC | 2540 |
| CGGGCAGGAAGCTCCACCCTCACTCCAGGAAGCTCT | 2640 |
| CCCGCCGGAAGCTGGGGTCCGCAGGCCGGAAGCTGA | 17500 |
| CGTACAGGATGCAATGACAGTTGGTGGGAAATGACA | 2230 |
| CCGCCCTCACAATATCCCAGGAAACAGACATCCGCG | 275 |
| GGGAAAGGAAATAGCTCTACGAGCGGCATCCTGCCT | 2170 |
| CACGTTCACTTCCTGGTTCACTTCTTCCGGGTTAAC | 18200 |
| GCCGGAGACTAGCTTCCGCTTCCGGTGTGAGCGGCC | 26200 |
| TGCGCATTTCCGCTCCTTGCCGGTTTTCCGGACCTC | 36000 |
| AGTAGGTCTCTACGGAAACAGGAAAAAAAAAAATTC | 204 |
| TCGCTTCCTCTGAGTAAGCAGGTTTTTAGGAAATTA | 7330 |
| GGGCGAGCTTCCTGCCAATCAGGGCGGAACCAGCGC | 14400 |
| CTGGCACTCTCTTCCGCCTCCTTCCTGCCTCCCTGT | 4730 |
| CGTCAGTCACCTCAGGAAGTTCCGCTTGCTTCTCGC | 817 |
| TTAAAATGGCGGCGGAAGAGATCCGGGCGCCGCCTG | 377 |
| CTCCGCACTCCCTTCCGGGACTTCCTCTCCCTGTCT | 3720 |
| CTGTCACACAGGAAGACCACACAGGAAGACCAGGTG | 1320 |

| Sequence | ETS1 binding intensity |
| --- | --- |
| CCCGCTACCTCTTCCTGCTCATTTCCTGCCAATCTT | 9940 |
| GACACTTCCTACAGAGATAAGCCAATATTTCCTGTT | 14900 |
| TGCTTAGGAAATTGCCAGAGTGGACACATCCGTATG | 192 |
| TTCCGACCGGAAGTGAGAAGAGGAGGAAGTTGGCTG | 64200 |
| CCAGTCACGCGGCTTCCGCTTCCGGTCGTGCCCTCT | 35700 |
| CCATAAAGGATGTTTTGTGTGAATGTTTCCGGCTGC | 1500 |
| TTCCTCTCCTTTCCGCGAGACCTTCCGCGGTTATCC | 178 |
| TACCCATTTCTAAGGAAATAGGAAATAGTCTCACTT | 226 |
| CCTGAAAGGATGTGCTCACTTTGCCTTTCCTGCCTG | 1610 |
| AGTACCTTGGCACATCCTACTTCCCTTGCAACGAAT | 2030 |
| CCCTCCAGGAAGTGCCCTGGGCAACTTCCTTGCTAA | 7360 |
| AGTGGCTGGTTCCGCCACGCTGCCGGAAAGCGCCCC | 349 |
| ACTGGGTCGGCGGCTTCCTTCCGGCTCTGCGCTCCT | 3900 |
| GCAATTTCCGCGCGCACCCCTTAAACAGGAACTGTT | 9840 |
| AAACAGGATATGGGTGACCTGGGAAACATCCCCAAA | 3470 |
| CTCCCGCGACCGGAAGAGTCGCTTCCGCTCCCGCCC | 15200 |
| AGAGAGTGCTCACGGAAACATCCTGCCCCTTAAAAC | 3470 |
| CTAGCCGGAGACCGGAAGCGGAAGCGCGCTTGTGTC | 25100 |
| CGCCCAGCCGCTTCCTCGGCGCATCCGCCCACCCGC | 2120 |
| TCTGGGCCAGGAAACACACGTGCATCCTGCGCATGC | 905 |
| TCTGAACATCCTCTTCTGCTCTCTCTTTCCTGCCTT | 5200 |
| ACAGCATCCGGAGCGCCGACGCGGGACCGGAAGTGA | 26000 |
| GGACAGGAAATGTTTACTGCCTGTGGCTTCCTGTCT | 8810 |
| TCTAATCAGACCACTTCCTTCCTGCTGCTTTGGTTT | 4210 |
| ACACACCCAGGATGCTCTCACCACTTCCCAGAGCCA | 337 |

| Sequence | ETS1 binding intensity |
| --- | --- |
| AGGCCGGCCCCAGCTTCCTTCCTGCTCTTCTGTCCC | 1840 |
| CGCCACATCCTGCCACCAGCAGCCCCGGAAGACACT | 32300 |
| TGCACCCAACCCGGAAATACTTCCTGTTTTAAAGTG | 26500 |
| AACCACAAGGAAATGGGGAATATGGGGAAGTTGCGC | 288 |
| CCAATTCGGAAGTGCCAAATGCAACTTCCGGGCAGG | 9200 |
| TCAGGAGGAAGCGCGGCGGCGGCGGCGGAACGCGCG | 247 |
| AAAACATATCCTGTGTTCACTAAGGGGAAGTGGTTT | 17500 |
| AGAGGATGTAAGGAAATGCCTGGATGTCCAGGCAAA | 503 |
| GCCGAGGACACTTCCGCGGGCGGAACCTGCCGGCAC | 5200 |
| CGAGGCCGGAAGTGGCCGTGGAGGCGGAAGTGGCGC | 39500 |
| AATGACACAGACAGGAAATGGGAAATGGTTCAGGGT | 12600 |
| GCTGTGAGGGAGCGGAAGCGGAAACGGCGCCGCTCC | 8680 |
| GAGGAGGAAATCACCCCTCCCCCATCATTTCCTGGG | 846 |
| GGCAAGCCAGACCGGATTTGGGAAACGTGTTATCAT | 675 |
| GGCCCCGGAAATCGGCTCAACCGTACTTCCGCTCAG | 10100 |
| CCACCGGAATTAGCCCACTTAATGGCAGGAACTGTG | 820 |
| CGGCTCACGGGAAATGTAGTCCACTTCCCAGAGGGC | 326 |
| TTTTATTTCCGGTTCTGAGGACGCCGCGGAAGCGGG | 78400 |
| GGAGCACTTCCGCTGGACGCACGCACTTCCGGCCCC | 50800 |
| TCGGGCCCTGGCTTCCGTCACTTCCGCCCGTGCCTG | 14700 |
| TTTCCTACCCATTTCCTCCACTTCCTGGACACAAAG | 5660 |
| TCTGAGGCGAAACTTCCCCTTCCGGCGACCGCGGAC | 4660 |
| TGTCCCTTCCTCCAGATGCTGATTGAGGATGTGTCC | 689 |
| AACCACTTCCGGTGAGTAGCTTCTACTTCCGGAGAC | 135000 |
| AGCACTTCCTGTTTGATCTCTATGATCCATCCTGTT | 106000 |
